Results as given in the supplement of paper PMC11417369.
± gives the standard deviation of the averaged measurements. This is one part of the list.

These sequences were tested on PfAP2-LT AP2 domain (GST-tagged) (assay: gcPBM binding intensity (ln(normalized median fluorescence intensity)); higher = stronger DNA binding).
Method in brief: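 In this array assay, P. falciparum DNA-binding domains with a GST tag, expressed in E. coli, were applied for 1 h to primer-extended double-stranded 36-bp intergenic genomic probes and negative controls on an Agilent 4 × 180k array. Bound protein was visualised with Alexa488 anti-GST antibody at 488 nm. Binding intensity is the highest Masliner-normalised natural-log median intensity across replicate spots of either probe orientation.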

In order of falling “gcPBM binding intensity (ln)” value:
1. AAACATAAGGGACACACACACATATATATATATATA [CACACA_site5920]  10.2 ± 0.27
2. CAAAAAAACAAACACACACACACACCGATATATATA [CACACA_site9218]  10.1 ± 0.23
3. AATAAAAAGGAACACACACACACACCGATATATATA [CACACA_site5895]  10.08 ± 0.085
4. TACATACACAGACACACACACATATATATATATATA [CACACA_site3557]  10.1 ± 0.19
5. CTTTTTAATTAATACACACACACACCCATATATATA [CACACA_site2292]  9.86 ± 0.37
6. AAAACACAAAAAAAATGTACACATATATATATATAT [XGTACX_site8509]  9.84 ± 0.12
7. ATAAAAATGTATATATGTACATATATATATATATAT [XGTACX_site1505]  9.76 ± 0.3
8. CATATACATACACATACACACATACAGACATACACA [CACACA_site6919]  9.63 ± 0.2
9. AAAAAACACCCACATACACACAAAAATGTTATAAAT [CACACA_site81]  9.53 ± 0.38
10. TGATGATATAAAAACACACACATATAACATAATACT [CACACA_site6687]  9.49 ± 0.33
11. AATATATACATATATACACACACATATATTATATAT [CACACA_site7980]  9.43 ± 0.35
12. TTTTTATTTGGTTGTGTACACATATATATATATATA [CACACA_site5844]  9.37 ± 0.25
13. ATAAACAGATAAAAGGGTACACACATATATACATGT [XGTACX_site452]  9.35 ± 0.56
14. ACATGTAATATAATGTGTACATATACAAAGGTATAT [XGTACX_site4145]  9.34 ± 0.59
15. AATAATAACAAATGAACACACATATAGATGAGCAAA [CACACA_site7076]  9.26 ± 0.45
16. ATATGTGTTAAAAATGCACACAAAAAAATATACATA [CACACA_site7988]  9.26 ± 0.38
17. TTATTTTTATATTTCACACACATATACTTTTACATA [CACACA_site4097]  9.24 ± 0.47
18. TTTTACAAATGTTTTACACACACATAATTGTATCAA [CACACA_site4166]  9.19 ± 0.31
19. CATTATGTCGTAAATACACACATACAGATACATACA [CACACA_site4880]  9.17 ± 0.31
20. CAATCTTTTACGAATACACACACATAAAGAAAAAAA [CACACA_site8367]  9.17 ± 0.37
21. TTTTCTGTGTTTTTGGGTACACACAAATAGCTTGTA [XGTACX_site8553]  9.12 ± 0.37
22. TCTTTTTTCATATTTTCACACATGTCTTTATATTTA [CACACA_site6025]  9.12 ± 0.53
23. CCTATAAAACCATATACACACATATATATAAAAAAA [CACACA_site4013]  9.11 ± 0.38
24. AGATGAGAAATATATACACACAATAATACCTATTTA [CACACA_site876]  9.1 ± 0.52
25. AATAAATTATGAACGGTGCAGGAAAAATTGTAACAT  9.08 ± 0.47
26. TATCTCATGCGCACAAAAATATATGCAAAGAGTATA [TGCATGCA_negctrl_site201]  9.07 ± 0.21
27. ATATTATCCCTATTTGCACACAAGAGTAATTTTTTA [CACACA_site3908]  9.04 ± 0.4
28. AGGAAAATTTTATTTGCACACATTATTACGTCTAAA [CACACA_site2337]  9.01 ± 0.4
29. TGTTTCTAAAAATTTACACACAAAATATTTCTACAT [CACACA_site4098]  8.98 ± 0.36
30. TGAAGTGCAAAATACTGTACGTAATGTGCTTGTTAC [XGTACX_site4512]  8.96 ± 0.46
31. TTATACGATAATATGACACACAATACAAAAATGTAA [CACACA_site1918]  8.96 ± 0.42
32. CTAAGAAAAAATAAAGCACACAAATATTTTAAAAAC [CACACA_site9094]  8.94 ± 0.38
33. TGAAATTTTATTAATGTGCACATATATTTATTGTTC  8.94 ± 0.4
34. ATTCCTTTATTATCACGTACTTATAAAATATAGTAT [XGTACX_site7498]  8.93 ± 0.44
35. TTTTTCATTTAGCTTTTACACACTATATATTATTGA [CACACA_site7888]  8.93 ± 0.44
36. ATATGGAAGAATTAAAGTACTTAAAAAAATGTCAGT [XGTACX_site6837]  8.91 ± 0.45
37. TCATAAATATAAAGTGTGCACTTGAATAATATGTAT  8.91 ± 0.3
38. TTAAATAAATAAAAATGTACATGCATATATAAATAT [XGTACX_site8908]  8.9 ± 0.41
39. AATTTTTTATATGTCACACATTTGTTATTATTATTA [CACACA_site4197]  8.89 ± 0.42
40. GTACCATCAAAATAAATATATATATATATATATTTT [GTGCAC_negctrl_site646]  8.89 ± 0.31
41. TGGGTATATATAAAAGGTACACAAAATGAAGATATA [XGTACX_site4994]  8.88 ± 0.6
42. TAAATATAAGTGTACATACACACTTTACAATCTCAT [CACACA_site3006]  8.86 ± 0.45
43. CAATTTTACTCATAAACACACATATATATGTTATTA [CACACA_site3152]  8.86 ± 0.47
44. ATTTAACATATAAAATGTACATATATATATATATTT [XGTACX_site2525]  8.86 ± 0.32
45. TTTTTTTTTTTTAATACACACATATATATATTTATT [CACACA_site3994]  8.85 ± 0.44
46. GGGAAAGAACCATATACATGCATATTTACCGTTAAA [TGCATGCA_site519]  8.85 ± 0.35
47. ATTGTCTTTTAATAGTGTACTTATTTTAAATATTGC [XGTACX_site8517]  8.83 ± 0.45
48. TTATTATATATAAGTAGTACAAACAATTAAGAGATA [XGTACX_site4009]  8.82 ± 0.45
49. TATTGTAGTCATGCACGTACAAAAGGAAAGTTAAAA [XGTACX_site4446]  8.82 ± 0.42
50. ACATATAGAAGTATCTATAAACAGTGATAGCATTTT [CACACA_negctrl_site1122]  8.81 ± 0.53
51. AAGAAAATAAAATAAAATAAAATAAAATAAAAATAT [TGCATGCA_negctrl_site493]  8.8 ± 0.49
52. GAGCCCAAAAAATTAGGTACGTATAAAGAGGTATTT [XGTACX_site5348]  8.8 ± 0.54
53. TTTTATAGAGTGTATACATGCAATACCACATAAAAT [TGCATGCA_site476]  8.79 ± 0.43
54. ATGGTTTAATTATATACACACTCGAAAATAACGACA [CACACA_site3258]  8.74 ± 0.41
55. CTTAAGTAAAATTAAAGTACATGGACAAAAAATATA [XGTACX_site7900]  8.73 ± 0.42
56. GTTATATATAATAATTGTACAAAATTAAATATAACT [XGTACX_site4189]  8.7 ± 0.47
57. AAATAAAATATTACATGTACATGTTCATAAAAAAAA [XGTACX_site1067]  8.7 ± 0.51
58. TAATTTCTTATGTATTGTACAAATAATATATTATAT [XGTACX_site1037]  8.7 ± 0.44
59. CTTATTTTATTCGAATGTACATAATTGTTAGACATT [XGTACX_site8583]  8.7 ± 0.38
60. ATTTAAATTTAAAAAACACACATAATATGATATATA [CACACA_site1973]  8.69 ± 0.47
61. ATATAAACATATAATAGTACACTTCGATAATTTTAT [XGTACX_site3321]  8.69 ± 0.51
62. AAAAAAAGGATGTACGTATCATAATTTTATTTTATA [CACACA_negctrl_site1543]  8.68 ± 0.59
63. ATAAAGTATATTATATGTACATATATATATTATATA [XGTACX_site1345]  8.68 ± 0.4
64. CATATATATATTGGAAGTACATATTTAATATTCATT [XGTACX_site3545]  8.68 ± 0.44
65. TTAAATAAAATAAAAACATGCACACTTTATTTTTTT [TGCATGCA_site719]  8.68 ± 0.5
66. AAATTAAATAAATTTACACACTAAAAATTACAGATA [CACACA_site4722]  8.66 ± 0.44
67. GTAAAAAAAAAAAAATGTACACATATATATAATATA [XGTACX_site159]  8.62 ± 0.56
68. AAAGAAGAAAAATATAGTACAGGGCACATGTCCTGT [XGTACX_site6293]  8.62 ± 0.54
69. TTATATATATATTGTTCACACATAATATAAATATTT [CACACA_site5835]  8.61 ± 0.52
70. TTTCTTTCTATTGTTATATTTATAATAATTATAATT [XGTACX_negctrl_site215]  8.6 ± 0.57
71. TAAATAAATCTGTGCTTGCACTTTTTTTGTTATTTT  8.59 ± 0.51
72. ATATTAATTCTACATTGTACACATGAAAAAATATAA [XGTACX_site8759]  8.57 ± 0.4
73. AAAAAGAATAAATAAATATAAATAAATAAATATATA [GTGCAC_negctrl_site336]  8.56 ± 0.54
74. AACATAATTAAAAATTGTACAGAATTTCAATCGAAA [XGTACX_site7542]  8.56 ± 0.59
75. TATAATTTATAAGTAGTGCATTTCTTTTCATTTTTA  8.55 ± 0.48
76. TAGATTATTTTATTTAGTACATAAAAAAGTAAGACC [XGTACX_site7889]  8.54 ± 0.47
77. TATAAAATTACATTTTGTCATTTATTTTTTCCCACT [TGCATGCA_negctrl_site110]  8.54 ± 0.63
78. TTTCTAATATATAAAGTGCAATACCATTCAGAGTTA  8.54 ± 0.45
79. AAAAAAAAAAAAATTGCATGTAAATGAAATAATAAA [TGCATGCA_site116]  8.54 ± 0.52
80. ATCACTTGAGAATAATTACATTAATATATATTTATG [TGCATGCA_negctrl_site581]  8.53 ± 0.45
81. AAAATAAAAAAAATAAATAAAAAAAATAATAATAAA [CACACA_negctrl_site563]  8.51 ± 0.65
82. TTTTAATAAATCATTTTCCTAATATTTATATTTGCT [TGCATGCA_negctrl_site232]  8.51 ± 0.54
83. AAAAAAAAATGTCATGGTACACAATTTTTTCTTTTT [XGTACX_site4505]  8.48 ± 0.47
84. TAACTATATTTTTACTGTACAAAAAAATTAAATAAT [XGTACX_site1765]  8.46 ± 0.38
85. TAAAGTAAAACAAGGTAAGGTTTTTCTTTTTCTTTT [CACACA_negctrl_site1271]  8.4 ± 0.5
86. TGATATTATATTGTGATGCACTTTAAAAATATAAAG [GTGCAC_site9509]  8.39 ± 0.44
87. TGTTTAAGTGTTTTTAGTACTTATAAAAATATTATC [XGTACX_site7379]  8.38 ± 0.5
88. TTTGTGTTGTATTTTTGTACATAAAATAAACTTAAA [XGTACX_site4637]  8.33 ± 0.38
89. ATAAATTAATGGAGAAATCTTATGAATTTATTTTAA [CACACA_negctrl_site1068]  8.3 ± 0.52
90. TTTCTTTTTTCTTCAGTGCATTAAAATTAACAAAAG  8.21 ± 0.38
